Reference: PubChem BioAssay AID624171 (National Center for Advancing Translational Sciences (NCATS), 2012)
Among all 410,000 compounds or so, about 1,200 (0.29%) were called active. Inconclusive means that the source gave no clear call. Such entries were picked first, then a sample of the others. The call rests on the fitted dose curve; in most records, active means well fitted activation curve with a large enough effect; inconclusive means small, poorly fitted or top-dose-only effect; inactive means flat fitted curve, though single readings scatter. Potencies of inconclusive entries are doubtful fits and often do not repeat.

Experiment: qHTS of Nrf2 Activators; further: nearly all actives have a fitted effect of over 65% in size
Conditions: AREc32 ARE-luciferase reporter (MCF7-derived line), luminescence, 24 h; series mostly up to 46.1 µM
How it was run: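 AREc32 cells carrying an ARE-driven firefly luciferase, 1000 cells/well in OPTI-MEM with 5% FBS, dosed after overnight attachment and incubated 24 hr at 37 deg C. Steady-Glo luminescence read after 30 min at RT.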
Potency means the concentration at half of the fitted maximal effect; tags describe the fitted curve by direction and shape.

| Structure (SMILES) | Potency |
| --- | --- |
| COC(=O)c1ccc(-c2nc(CN3CCCN(C(=O)c4ccco4)CC3)c(C)o2)cc1 | inactive |
| O=C1NC(c2ccccc2)=N/C1=C/c1ccco1 | active: 3.98 µM |
| Cn1cccc1/C=C1\CC(C(C)(C)C)C/C(=C\c2cccn2C)C1=O (stereo not drawn) | inconclusive: 3.16 µM [activator, single point] |
| Oc1ccc(/C=C/c2ccc3cccc(O)c3n2)cc1Br | inconclusive: 5.62 µM [activator, single point] |
| COc1ccccc1NC(=O)c1cc(S(=O)(=O)NCCc2ccccc2)ccc1F | inactive |
| O=C(Nc1ncccc1O)c1ccc2c(c1)OCO2 | inconclusive: 12.6 µM [activator, single point] |
| CCN1C(=O)c2cccc3c(S(=O)(=O)NCc4ccco4)ccc1c23 | inconclusive: 22.4 µM [activator, partial curve, poor fit] |
| N#Cc1ccccc1NC(=S)NC(=O)c1cccs1 | active: 15.8 µM |
| CCOC(=O)c1c(C)[nH]c(C(=O)COC(=O)c2ccc([N+](=O)[O-])o2)c1C | inconclusive: 17.8 µM [activator, single point] |
| C=CCSc1nnc(-c2ccc(Cl)cc2Cl)o1 | inconclusive: 15.8 µM [activator, single point] |
| O=C(Nc1ccccc1)Nc1ccc(Nc2ccccc2)cc1 | inactive |
| Cc1ccc(Cc2c(-c3ccco3)nc3ccc(Cl)cn23)cc1 | active: 12.6 µM |
| COC(=O)c1ccc(COc2ccc(/C=C/C(=O)c3ccc(OC)c(CSCC(=O)O)c3)cc2OC)cc1 | inconclusive: 25.1 µM [activator, single point] |
| CCc1cccc(CC)c1NC(=O)C(CC)n1nc(C)n2c(cc3cc(C)ccc32)c1=O (stereo not drawn) | inactive |
| Cn1nccc1C(=O)Nc1ccc(Cl)cc1 | inactive |
| COc1cc(NS(=O)(=O)c2ccc(N/C=C(\C=O)c3nc4ccccc4o3)cc2)nc(OC)n1 | inconclusive: 22.4 µM [activator, single point] |
| CC(=O)N1CCN(c2ccc(NCc3cccc(C)c3)cc2)CC1 | inactive |
| O=C(CCS(=O)(=O)c1ccccc1)Nc1nc2c(s1)COc1ccccc1-2 | inconclusive: 2.82 µM [activator, full curve, poor fit] |
| Cc1ccccc1CNC(=O)C1CCN(c2nnc(-n3c(C)ccc3C)s2)CC1 | inconclusive: 31.6 µM [activator, single point] |
| O=C(CCc1ccc(O)c(O)c1)NNC(=S)Nc1ccc(Br)cc1Cl | inconclusive: 35.5 µM [activator, partial curve, poor fit] |
| Cc1ccc(C(=O)CCNc2ccc(F)c(Cl)c2)o1 | inconclusive: 25.1 µM [activator, single point] |
| O=C(CN(c1ccc(Cl)c(C(F)(F)F)c1)S(=O)(=O)c1ccccc1)N/N=C/c1cccc2c1OCCO2 | inactive |
| O=C(c1c[nH]c2ccccc12)C(Cl)c1ccccc1 (stereo not drawn) | inconclusive: 3.16 µM [activator, partial curve, poor fit] |
| O=C(Nc1ccccc1)c1cc([N+](=O)[O-])ccc1Cl | inconclusive: 1.26 µM [activator, full curve, poor fit] |

| Structure (SMILES) | Potency |
| --- | --- |
| Cc1cccc(C2NC(=O)c3ccccc3N2)c1 (stereo not drawn) | inactive |
| CN(Cc1ccccc1)c1nc(N)nc(Cl)c1C=O | inconclusive: 11.2 µM [activator, partial curve] |
| N#C/C(=C\c1ccccn1)c1nc2ccccc2s1 | active: 17.8 µM |
| Cc1sc(NC(=O)c2cccs2)c(C(N)=O)c1C | active: 10 µM |
| CCOc1cccc2sc(NC(=O)c3ccc(Br)s3)nc12 | inactive |
| COc1ccc(-n2cc3ccc([N+](=O)[O-])cc3n2)cc1 | inconclusive: 17.8 µM [activator, single point] |
| COc1ccccc1NC(=O)c1c(NCc2ccc(C)o2)sc2c1CCC(C)C2 (stereo not drawn) | inconclusive: 22.4 µM [activator, single point] |
| CS(=O)(=O)n1nc(OC(=O)c2cc(Br)ccc2Cl)cc1N | inactive |
| Cn1c(C(=O)NCCc2ccccc2)cc2c(=O)n3ccccc3nc21 | inactive |
| COc1ccc(Cl)cc1NC(=O)CCS(=O)(=O)c1ccc(Br)cc1 | inconclusive: 17.8 µM [activator, single point] |
| O=S(=O)(c1ccccc1)c1cc(O)ccc1O | inconclusive: 22.4 µM [activator, single point] |
| O=C(c1nn(Cc2ccccc2)c(=O)c2ccccc12)N1CCc2ccccc2C1 | inactive |
| O=C/C=C/c1c(-c2ccccc2)cc2oc3ccccc3cc1-2 | inconclusive: 1.58 µM [activator, partial curve, poor fit] |
| Oc1ccccc1NCC(O)Cn1ccc2ccccc21 (stereo not drawn) | inconclusive: 20 µM [activator, single point] |
| O=C(Nc1nnc(-c2ccncc2)s1)C1CCCO1 (stereo not drawn) | inactive |
| C/C(=N\NC(=O)C1COc2ccccc2O1)c1ccccn1 (stereo not drawn) | inconclusive: 35.5 µM [activator, single point] |
| Nc1nc2c(c(=O)[nH]1)C(c1ccccc1)C1=C(N2)c2ccccc2C1=O (stereo not drawn) | inconclusive: 22.4 µM [activator, single point] |
| N#C/C(=C/c1ccc(Br)o1)C(N)=O | inconclusive: 22.4 µM [activator, single point] |
| CCCc1nnc(NC(=O)CCC(=O)Nc2ccc(Cl)cc2)s1 | inactive |
| O=C(Oc1cccnc1)c1ccc([N+](=O)[O-])cc1 | inactive |
| Cc1ccc(CN2CCSc3ccc(C(=O)N4CCN(c5ncccn5)CC4)cc32)cc1 | inactive |
| O=C(COc1ccccc1)Nc1cc(Cl)ccc1Cl | inconclusive: 11.2 µM [activator, partial curve, poor fit] |
| O=[N+]([O-])c1ccc(Oc2ccc(F)cc2Br)c2ccncc12 | inconclusive: 15.8 µM [activator, single point] |
| COc1cc(/C=C/C(=O)c2ccc([N+](=O)[O-])o2)ccc1O | inconclusive: 0.562 µM [activator, full curve, poor fit] |
